Assay results: PubChem BioAssay AID463173 (ICCB-Longwood Screening Facility, Harvard Medical School, 2010)
The whole screen tested about 52,000 compounds, of which about 4,300 (8.3%) were called active. No stated cut-off is given here; in the data, active means survival mostly below about 52% (no sharp cut-off); inactive means mostly above about 56%. This is one part of the list.

tested on: DeltatarO mutant; assay: S. aureus survival, RN4220 and DeltatarO strains – OD600, teichoic acid synthesis inhibitors, primary screen (AID 463173); details: S. aureus RN4220 wild type/DeltatarO growth, OD600, 18 h, hits give low values, screened at 18.75 µg/mL (by protocol)

Row | Structure (SMILES) | survival
1 | COc1ccc(CNC(=O)Cc2c(C)c3cc4c(C)coc4c(C)c3oc2=O)cc1 | inactive: 72%
2 | Cc1ccc(C)c(CN2CCCN(Cc3ccc(F)cc3)S2(=O)=O)c1 | active: -5%
3 | Cc1nc(-n2nc(C)c(Cc3ccccc3Cl)c2C)sc1C(=O)Nc1ccccc1F | inactive: 78%
4 | Cc1nc(C)c(-c2ccc(SCC(=O)Nc3ccc(Br)cc3)nn2)s1 | inactive: 101%
5 | CC(C)(C)C(=O)Nc1ccc2oc(=O)ccc2c1 | inactive: 80%
6 | CC(=O)c1cccc(-n2c(=O)c3c4c(sc3n(CC(=O)c3ccccc3)c2=O)CN(C(C)=O)CC4)c1 | inactive: 84%
7 | Cc1ccc(C)c(CN2C(=O)c3ccccc3S(=O)(=O)c3ccc(C(=O)N(C)C4CCCCC4)cc32)c1 | inactive: 64%
8 | CC1(C)Cc2ccccc2C(=NCC(=O)O)N1 | inactive: 96%
9 | CC(=O)c1cc2c(cc1N/C(=N/S(=O)(=O)c1ccc(Cl)cc1)c1ccc(F)cc1)OCO2 | inactive: 99%
10 | Cc1ccc(OC(=O)c2cccc(S(=O)(=O)N3CCOCC3)c2)c(-n2nc3ccccc3n2)c1 | inactive: 101%
11 | CCc1nnc(NC(=O)CSc2nccn2-c2ccc(OC)cc2)s1 | inactive: 116%
12 | CSc1ccc(CCNC(=O)c2cnc3c(C)cccn3c2=O)cc1 | inactive: 89%
13 | COC(=O)CSc1nnc(C2CCCCC2)n1Cc1ccccc1 | inactive: 116%
14 | Cc1ccccc1-c1nc(CN2CCC(C(=O)NCc3ccccc3Cl)CC2)c(C)o1 | inactive: 84%
15 | O=S1(=O)C=C(N2CCCC2)c2ccccc21 | inactive: 92%
16 | CCOc1ccc(N2CC(NC(=O)CCc3ccccc3)CC2=O)cc1 (stereo not drawn) | inactive: 93%
17 | CC(C)(C)c1ccc(NC(=O)C2CCCN(c3cnccn3)C2)cc1 (stereo not drawn) | inactive: 103%
18 | CCc1ccccc1NC(=O)Nc1c[nH]c(=O)[nH]c1=O | inactive: 75%
19 | Cc1ccc(C)c(N2CCN(C(=O)c3ccc(NC(=O)c4nsc5ccccc45)cc3)CC2)c1 | inactive: 67%
20 | Cc1nn(-c2ccccc2)c(OC(=O)C(C)C)c1Sc1ccc(Cl)cc1 | active: 36%

Row | Structure (SMILES) | survival
21 | Cc1ccc(CNC(=O)CCCCCn2c(=O)[nH]c3ccccc3c2=O)cc1 | inactive: 124%
22 | Cc1ccc(/C=C/c2onc(C)c2S(=O)(=O)N2CCC(C(=O)Nc3ccc(C)c(N(C)C)c3)CC2)cc1 | inactive: 100%
23 | Cc1ccc(C(=O)NC2CCSC2=O)cc1 (stereo not drawn) | inactive: 100%
24 | Cc1c(Cl)cccc1NC(=O)CCN1CCC(C(N)=O)CC1 | inactive: 97%
25 | CC1CCCN(CCCNC(=O)c2ccc3c(c2)N(Cc2ccccc2F)C(=O)c2ccccc2S3(=O)=O)C1 (stereo not drawn) | inactive: 179%
26 | COc1ccccc1NC(=O)c1cc2c(n(-c3ccc(C)cc3)c1=O)CC(C)(C)CC2=O | active: 45%
27 | CCCn1cnc2sc3c(c2c1=O)CCCC3 | inactive: 102%
28 | COc1ccc(CNC(=O)CSCc2ccc(C)cc2)c(OC)c1 | inactive: 55%
29 | O=C(c1ccc2c(c1)N(Cc1cccc(Cl)c1)C(=O)c1ccccc1S2(=O)=O)N1CCN(Cc2ccccc2)CC1 | inactive: 92%
30 | CCc1cc2c(cc3c(=O)n(CC(=O)NC(C)C)nc(CC)n32)s1 | inactive: 75%
31 | Cc1ccc(NS(=O)(=O)c2ccc(-c3cc(C)no3)cc2)c(C)c1 | inactive: 103%
32 | CC1(C)CC(n2c(=O)c3c(n4cnnc24)-c2ccccc2CC32CCCCC2)CCO1 (stereo not drawn) | inactive: 52%
33 | CCC1CCCCN1CCCNC(=O)c1sc2nc(C)cc(C)c2c1-n1cccc1 (stereo not drawn) | inactive: 92%
34 | CCCN(CCC)CCCNC(=O)c1sc2nc3n(c(=O)c2c1C)CCC3 | inactive: 79%
35 | Cc1ccccc1OCCSc1nnc(-c2ccc([N+](=O)[O-])cc2)o1 | inactive: 102%
36 | Oc1cccc(-c2nc(-c3cccs3)c(-c3cccs3)[nH]2)c1 | active: 4%
37 | COc1cccc(C(c2sc3nc(-c4ccco4)nn3c2O)N2CCC3(CC2)OCCO3)c1 (stereo not drawn) | inactive: 67%
38 | CCc1ccc(CNC(=O)c2ccc(-n3c(C)cc4c3CCC(C)C4)cc2)cc1 (stereo not drawn) | inactive: 123%
39 | Cc1ccc(S(=O)(=O)Nc2ccc3c(c2)CCCN3C(=O)c2cccs2)cc1C | inactive: 70%
40 | COc1cc(Br)c(C2CC(=O)Nc3cc4c(cc32)OCCO4)cc1OC (stereo not drawn) | inactive: 86%

Row | Structure (SMILES) | survival
41 | CCc1ccc(NC(=O)c2ccc(F)c(S(=O)(=O)N3CCc4ccccc4C3)c2)cc1 | inactive: 79%
42 | Cc1cccc(NC(=O)C(Cc2ccccc2)N2Cc3ccccc3C2=O)c1C (stereo not drawn) | inactive: 76%
43 | CCc1nn(CC(=O)NCCN(CC(C)C)CC(C)C)c(=O)c2cc3sc(C)cc3n12 | inactive: 68%
44 | O=C(CSC1=NC(c2ccco2)CC(C(F)(F)F)N1)NCc1ccc(F)cc1 (stereo not drawn) | inactive: 88%
45 | COc1ccc(CNC(=O)Cn2c(=O)n3nc(-c4cccc(F)c4)nc3c3ccccc32)cc1OC | inactive: 82%
46 | CCN1CCCC1CNC(=O)Nc1c[nH]c2ccc(C)cc2c1=O (stereo not drawn) | inactive: 102%
47 | COc1ccc(CNC(=O)C2=Cc3cccc(OC)c3OC2)cc1OC | inactive: 93%
48 | O=C(Nc1ccc(F)cc1F)c1cc(CN2CCOCC2)on1 | inactive: 92%
49 | CCc1cc(=O)oc2c(C)c3c(cc12)CN(CCc1ccccc1)CO3 | inactive: 71%
50 | COc1ccc(OC)c(NS(=O)(=O)c2ccc3c(c2)CCCN3C(=O)C2CCC2)c1 | inactive: 72%
51 | Cc1cc(C(=O)NCc2ccc(C(=O)O)o2)c(C)o1 | active: 58%
52 | Cc1ccc(C2c3[nH]c4ccccc4c3CCN2C(=O)CSc2ccccc2)cc1 (stereo not drawn) | inactive: 69%
53 | CCOC(=O)CSc1nc2c(C)ccc(C)c2cc1C#N | inactive: 69%
54 | COc1ccc(-c2nc(CSc3nnc(C)n4c3cc3sccc34)c(C)o2)cc1 | inactive: 107%
55 | Oc1ccccc1-c1nc2ccc(Cl)cn2c1Nc1ccc2c(c1)OCCO2 | inactive: 82%
56 | O=C(Nc1c(C(=O)N2CCN(c3ccccc3F)CC2)oc2ccccc12)c1ccc(Br)o1 | inactive: 80%
57 | COc1ccc(-c2ccc(=O)n(CC(=O)Nc3ccccc3C(F)(F)F)n2)cc1 | inactive: 79%
58 | CCS(=O)(=O)N1CCc2cc(C(=O)Nc3cccc(NC(C)=O)c3)ccc21 | active: 42%
